According to publication PMC11995724, “Antibiotic target discovery by integrated phenotypic and activity-based profiling of electrophilic fragments” (Cell chemical biology, 2025):
The whole screen tested about 3,200 compounds, of which about 75 (2%) showed an effect of 50% or more. Some of the results follow.

Tested on: T1, S. aureus MSSA476
T1 construct: MSSA476
Parameters: species or system S. aureus MSSA476 (TSB) or V. cholerae SAD30 (LB); 384-well bacterial growth screen at 25 uM, OD600 relative to DMSO control
Details: relative growth, OD600, TSB; 25 µM; inhibitor

Row | SMILES | % of control remaining [%]
1 | C=CC(=O)NCCC(=O)N1CCC(c2ncccn2)CC1 [3-M17, N-{3-oxo-3-[4-(pyrimidin-2-yl)piperidin-1-yl]propyl}prop-2-enamide] | 86.3735
2 | CCN(c1ccc(NC(=O)CCl)cc1)C(C)C.Cl [5-J08, 2-chloro-N-{4-[ethyl(propan-2-yl)amino]phenyl}acetamide hydrochloride] | 119.854
3 | Cc1cccc(Cc2cnc(NC(=O)CCl)s2)c1 [4-B09, 2-chloro-N-{5-[(3-methylphenyl)methyl]-1,3-thiazol-2-yl}acetamide] | 125.774
4 | CC1CCCC(NC(=O)C(C#N)=Cc2ccccc2)C1C (centres unmarked) [8-C19, 2-cyano-N-(2,3-dimethylcyclohexyl)-3-phenylprop-2-enamide] | 92.2822
5 | C=CC(=O)NCc1csc(C(C)(C)C)n1 [2-C09, N-[(2-tert-butyl-1,3-thiazol-4-yl)methyl]prop-2-enamide] | 105.135
6 | CC(Cl)C(=O)N1CCN(CCOc2ccc3c(c2)CCC3)CC1 (centres unmarked) [6-H17, 2-chloro-1-{4-[2-(2,3-dihydro-1H-inden-5-yloxy)ethyl]piperazin-1-yl}propan-1-one] | 96.2927
7 | CCOc1ccc(N2C(=O)C=CC2=O)cc1 [10-A14, 1-(4-ethoxyphenyl)-2,5-dihydro-1H-pyrrole-2,5-dione] | 141.563
8 | CC(Cl)C(=O)N(C)C1CCN(c2ccccn2)CC1 (centres unmarked) [6-J20, 2-chloro-N-methyl-N-[1-(pyridin-2-yl)piperidin-4-yl]propanamide] | 95.6098
9 | Cc1ccc(C2CC(c3cccs3)=NN2C(=O)CCl)cc1 (centres unmarked) [4-I22, 2-chloro-1-[5-(4-methylphenyl)-3-(thiophen-2-yl)-4,5-dihydro-1H-pyrazol-1-yl]ethan-1-one] | 118.533
10 | C=CC(=O)N(Cc1cc(Cl)ccc1OC)C1CCCOCC1 (centres unmarked) [2-C07, N-[(5-chloro-2-methoxyphenyl)methyl]-N-(oxepan-4-yl)prop-2-enamide] | 102.698
11 | Cc1cc(C)c(NC(=O)C(C)Cl)c(C)c1 (centres unmarked) [5-K15, 2-chloro-N-(2,4,6-trimethylphenyl)propanamide] | 104.554
12 | C=CC(=O)NC1CCN(Cc2ccc(Cl)cc2)CC1 [1-N08, N-{1-[(4-chlorophenyl)methyl]piperidin-4-yl}prop-2-enamide] | 110.418
13 | C=CC(=O)NC(C)C(c1ccccc1Cl)n1cccn1 (centres unmarked) [2-J05, N-[1-(2-chlorophenyl)-1-(1H-pyrazol-1-yl)propan-2-yl]prop-2-enamide] | 116.623
14 | CN(C)c1ccc(C=C(C#N)C(=O)Nc2nccs2)cc1 [8-E06, 2-cyano-3-[4-(dimethylamino)phenyl]-N-(1,3-thiazol-2-yl)prop-2-enamide] | 127.469
15 | CC(Cl)C(=O)NCc1ccccc1S(=O)(=O)N1CCOCC1 (centres unmarked) [7-K15, 2-chloro-N-{[2-(morpholine-4-sulfonyl)phenyl]methyl}propanamide] | 99.2151
16 | N#CC(=Cc1csc(COc2ccccc2)n1)C(N)=O [9-B12, 2-cyano-3-[2-(phenoxymethyl)-1,3-thiazol-4-yl]prop-2-enamide] | 100.974
17 | C=CC(=O)Nc1cn(CCC)cn1 [3-B10, N-(1-propyl-1H-imidazol-4-yl)prop-2-enamide] | 124.336
18 | O=C(CCl)Nc1ccc(F)c(F)c1F [4-M05, 2-chloro-N-(2,3,4-trifluorophenyl)acetamide] | 85.7551
19 | CN1C(=CC=C(C#N)C(=O)NCC2CCCO2)C(C)(C)c2ccccc21 (centres unmarked) [8-M04, 2-cyano-N-[(oxolan-2-yl)methyl]-4-(1,3,3-trimethyl-2,3-dihydro-1H-indol-2-ylidene)but-2-enamide] | 149.046
20 | C=CC(=O)N1CC[C@H](NS(C)(=O)=O)C1 [2-H21, N-[(3S)-1-(prop-2-enoyl)pyrrolidin-3-yl]methanesulfonamide] | 109.661
21 | N#CC(=CC(Cl)=Cc1ccccc1)C(=O)NC1CCCCC1 [8-D17, 4-chloro-2-cyano-N-cyclohexyl-5-phenylpenta-2,4-dienamide] | 126.805
22 | C=CC(=O)NC1CCn2cccc2C1 (centres unmarked) [3-N11, N-(5,6,7,8-tetrahydroindolizin-7-yl)prop-2-enamide] | 92.2943
23 | Cc1ccc(C=C(C#N)C(=O)Nc2ccc(C(=O)O)cc2)s1 [8-E04, 4-[2-cyano-3-(5-methylthiophen-2-yl)prop-2-enamido]benzoic acid] | 88.6307
24 | N#CCCN(Cc1ccco1)C(=O)CCl [5-D20, 2-chloro-N-(2-cyanoethyl)-N-[(furan-2-yl)methyl]acetamide] | 100.546
25 | C=CC(=O)NC1CCCN(C2CCCCC2)C1=O (centres unmarked) [3-O18, N-(1-cyclohexyl-2-oxopiperidin-3-yl)prop-2-enamide] | 95.7771
26 | C=CC(=O)N1CCC(C(=O)Nc2c[nH]c(=O)c(C)c2)CC1 [3-J05, N-(5-methyl-6-oxo-1,6-dihydropyridin-3-yl)-1-(prop-2-enoyl)piperidine-4-carboxamide] | 92.2943
27 | N#CC(=Cc1cccnc1)C(=O)NCCc1ccccc1 [9-K14, 2-cyano-N-(2-phenylethyl)-3-(pyridin-3-yl)prop-2-enamide] | 104.869
28 | C=CC(=O)Nc1cc2c(cc1Sc1ccccc1)OCCO2 [1-M13, N-[7-(phenylsulfanyl)-2,3-dihydro-1,4-benzodioxin-6-yl]prop-2-enamide] | 113.934
29 | C=CC(=O)NCc1ccc(C(=O)N2CCCC(c3nnc[nH]3)C2)cc1 (centres unmarked) [3-E19, N-({4-[3-(4H-1,2,4-triazol-3-yl)piperidine-1-carbonyl]phenyl}methyl)prop-2-enamide] | 115.977
